From ChEMBL document CHEMBL4888484, “Replenishing the malaria drug discovery pipeline: Screening and hit evaluation of the MMV Hit Generation Library 1 (HGL1) against asexual blood stage Plasmodium falciparum ,using a nano luciferase reporter read-out” (2022)
The whole screen tested about 150,000 compounds, of which about 540 (0.36%) showed an effect of 50% or more. The list shows a part of the results.

System: Plasmodium falciparum
Assay: Primary screen in NF54 nanoGlo assay, in single point, at 2uM, 72h; a lower Z score goes with more inhibition
Format: functional, Erythrocyte
Details: timepoint 72 hour

Going from `CC1CCN(CC2CCCN(C(=O)C(C(C)C)N3CC(C)OC(C)C3)C2)CC1` (stereo unspecified) to `O=C(c1ccc(Cl)s1)N1CCN(C[C@H](O)C2CC2)CC1`, the “% Inhibition” value falls from -11% to -15%.

Going from `CC(C)n1nnc2cc(S(=O)(=O)N(C)CC(=O)NCc3ccco3)ccc21` to `Cc1oc(S(C)(=O)=O)cc1C(=O)NCc1ccc(C)n1C`, the “% Inhibition” value rises from -11% to -5%.

First: CCn1nc(C)c(CN2C[C@H]3CN(S(=O)(=O)CC)C[C@@]3(c3nc(C)no3)C2)c1C
Second: Cc1noc([C@H](C)NS(=O)(=O)N(C)C(C)C)n1
The “% Inhibition” value of the first is higher: 11% for the first, 4% for the second.

Compared with `COC(=O)[C@@]1(C)CCN(C(=O)c2ccnc3[nH]cnc23)C1`, `COc1cnc(NC(=O)[C@@]2(C)CCCN(C(=O)c3ccccc3)C2)cn1` is higher in “% Inhibition” value: -16% for the first, -5% for the second.

Going from `Cc1cc(CCNC(=O)NC2CNC2)cc(C)c1O` to `Cc1cc2n(n1)CCCN2C(=O)CCC(=O)NCCc1ccc(Cl)cc1`, the “% Inhibition” value falls from 4% to -10%.

Going from `COc1ccc2c(=O)c(C(=O)N3CCN(S(C)(=O)=O)CC3)c[nH]c2c1` to `Cn1nncc1S(=O)(=O)N1CCN(C(=O)c2ccc(Cl)cc2)CC1`, the “% Inhibition” value rises from -17% to 13%.

First: O=C([C@H]1CC(=O)N(c2ccc(F)c(F)c2)C1)N1CCCO1
Second: NC(=O)c1cc[nH]c1[C@H]1CCCN(C(=O)c2ccc(F)c(Cl)c2)C1
The “% Inhibition” value of the first is lower: -10% for the first, 5% for the second.

First: CN(CC(C)(CO)CO)c1cnccn1
Second: CC[C@H](NC(=O)COCC(N)=O)c1ccc(C)cn1
The “% Inhibition” value of the first is lower: -9% for the first, -3% for the second.

First: CS(=O)(=O)N1CCC[C@H](CCc2ccccc2)C1
Second: CN(Cc1ccccc1)S(=O)(=O)N[C@@H]1COCC[C@@H]1OCC1CC1
The “% Inhibition” value of the first is lower: -16% for the first, -4% for the second.

Going from `Cc1cccc(OCc2nc(CN(CCN3CCOCC3)C(=O)NC(C)(C)C)cs2)c1` to `CN(CCCCN1CCOCC1)C(=O)c1cn[nH]c1`, the “% Inhibition” value falls from 2% to -5%.

Compared with `NC(=O)c1nccnc1C(=O)NC1CC1c1cccc(Cl)c1` (stereo unspecified), `C[C@](NC(=O)CCc1ccsc1)(C(N)=O)c1cccc(Cl)c1` is lower in “% Inhibition” value: -1% for the first, -7% for the second.

Going from `CCc1onc(C)c1[C@@H]1CCCN1Cc1sccc1C` to `Cc1nn(CCCNC2CCCCC2)c(C)c1C`, the “% Inhibition” value falls from -4% to -17%.

Going from `c1cc(CNCCc2nc(C3CC3)cs2)c2[nH]ncc2c1` to `O=C(NCc1ccccn1)c1nc[nH]n1`, the “% Inhibition” value rises from -6% to 1%.

Going from `Cc1cc(C)c(S(=O)(=O)Nc2ccc3c(c2)CCCN3S(=O)(=O)c2cccs2)c(C)c1` to `CCCn1cc(NS(=O)(=O)c2cccc3nn(C)nc23)ccc1=O`, the “% Inhibition” value rises from -21% to -7%.

Going from `Cc1cc2n(n1)CCC(=O)N2Cc1ccc(C(=O)NCCCN2CCCCC2)cc1` to `CCN(CCNC(=O)c1ccc(-n2c(-c3ccccc3)cc3c2CCCC3)cc1)c1ccccc1`, the “% Inhibition” value falls from 2% to -17%.

First: O=C(C1CCOCC1)N1CCc2sccc2C1
Second: CC(C(=O)NCc1cccs1)N1CCCCC1Cn1cncn1 (stereo unspecified)
The “% Inhibition” value of the first is higher: -4% for the first, -10% for the second.

Going from `Cc1ccc(-n2cc(NCc3cnc([C@H](C)O)s3)cn2)c(C)c1` to `Cc1cc(Cc2cnc(NC(=O)Cc3c(C)noc3C)s2)ccc1Br`, the “% Inhibition” value rises from -16% to -10%.

First: Cc1ccc2c(C(=O)N3CCCCC3)cc(-c3cncnc3)nc2c1C
Second: Cc1ccc(-c2cc(C(=O)NC[C@H]3CCCO3)c3ccccc3n2)s1
The “% Inhibition” value of the first is lower: 3% for the first, 13% for the second.

First: CN(Cc1ccc(Cl)s1)C(=O)Cn1cnc(C#N)c1C#N
Second: CCc1noc(CN(CC)C(=O)Nc2c(C)c(CC)nn2-c2ccccc2)n1
The “% Inhibition” value of the first is higher: -6% for the first, -10% for the second.

Going from `O=C(c1ccccc1)[C@@H](C(=O)N1CCC(Cc2ccccc2)CC1)n1ccccc1=O` to `O=C(c1ccccc1)N(CCc1nc(-c2ccccc2)no1)Cc1ccco1`, the “% Inhibition” value falls from -9% to -10%.

Going from `CCc1ccc(CN2CCN(CC3CC3)[C@@H]3CS(=O)(=O)C[C@@H]32)cc1` to `CN1CCC(N(C)C(=O)C2CC(=O)N(Cc3cc(C(F)(F)F)cc(C(F)(F)F)c3)C2)C1` (stereo unspecified), the “% Inhibition” value falls from -10% to -11%.

First: CCOc1cccc([C@@H]2CC(c3ccc(C)cc3)=NC3(CCN(C(C)=O)CC3)N2)c1O
Second: COc1ccc(C)cc1NC(=O)CCc1nc2c(C)nn(-c3ccccc3)c2n(C)c1=O
The “% Inhibition” value of the first is lower: -34% for the first, -14% for the second.

Going from `COC[C@H](CC(C)C)OC(=O)c1cccc(-n2cccn2)n1` to `COc1cc(C(=O)N2CCc3[nH]c(-c4ccc(F)cc4F)nc3C2)ccn1`, the “% Inhibition” value falls from 2% to -1%.

Going from `COc1ccccc1N1CCN([C@H]2[C@@H]3OC[C@@H](O3)[C@@H](NCc3ccco3)[C@@H]2O)CC1` to `CC1CN(Cc2ccccc2)CC(C)C1NC(=O)c1ccncc1F` (stereo unspecified), the “% Inhibition” value rises from -11% to 37%.

Going from `Cn1cccc1C(=O)N1CCC[C@H](n2cc(-c3nc(-c4ccccc4)no3)nn2)C1` to `CCOC(=O)C1CCC(Nc2cccc(-c3nnco3)c2)CC1C` (stereo unspecified), the “% Inhibition” value falls from -11% to -13%.

Compared with `O=C1C2CC2C(=O)N1c1ccc2snnc2c1` (stereo unspecified), `Cc1cnn(C(C)C)c1Nc1nc2c(s1)c(C)nn2C` is higher in “% Inhibition” value: -7% for the first, -5% for the second.

`CNc1cc(C)nc(N2C[C@H](C)[C@@](O)(C3CC3)C2)n1` was tested, and the “% Inhibition” value was 7%.

Compared with `CC1CCN(CC2CCCN(C(=O)C(C(C)C)N3CC(C)OC(C)C3)C2)CC1` (stereo unspecified), `O=C(c1ccc(Cl)s1)N1CCN(C[C@H](O)C2CC2)CC1` is higher in Z score: 1.24 for the first, 2.21 for the second.

Compared with `CC(C)n1nnc2cc(S(=O)(=O)N(C)CC(=O)NCc3ccco3)ccc21`, `Cc1oc(S(C)(=O)=O)cc1C(=O)NCc1ccc(C)n1C` is lower in Z score: 0.97 for the first, 0.7 for the second.

First: CCn1nc(C)c(CN2C[C@H]3CN(S(=O)(=O)CC)C[C@@]3(c3nc(C)no3)C2)c1C
Second: Cc1noc([C@H](C)NS(=O)(=O)N(C)C(C)C)n1
The Z score of the first is lower: -1.45 for the first, -0.47 for the second.

Going from `COC(=O)[C@@]1(C)CCN(C(=O)c2ccnc3[nH]cnc23)C1` to `COc1cnc(NC(=O)[C@@]2(C)CCCN(C(=O)c3ccccc3)C2)cn1`, the Z score falls from 2.92 to 0.57.

Going from `Cc1cc(CCNC(=O)NC2CNC2)cc(C)c1O` to `Cc1cc2n(n1)CCCN2C(=O)CCC(=O)NCCc1ccc(Cl)cc1`, the Z score rises from -0.6 to 1.23.

First: COc1ccc2c(=O)c(C(=O)N3CCN(S(C)(=O)=O)CC3)c[nH]c2c1
Second: Cn1nncc1S(=O)(=O)N1CCN(C(=O)c2ccc(Cl)cc2)CC1
The Z score of the first is higher: 2.27 for the first, -1.36 for the second.

Going from `O=C([C@H]1CC(=O)N(c2ccc(F)c(F)c2)C1)N1CCCO1` to `NC(=O)c1cc[nH]c1[C@H]1CCCN(C(=O)c2ccc(F)c(Cl)c2)C1`, the Z score falls from 1.09 to -0.59.

Compared with `CN(CC(C)(CO)CO)c1cnccn1`, `CC[C@H](NC(=O)COCC(N)=O)c1ccc(C)cn1` is lower in Z score: 1.74 for the first, 0.34 for the second.

Compared with `CS(=O)(=O)N1CCC[C@H](CCc2ccccc2)C1`, `CN(Cc1ccccc1)S(=O)(=O)N[C@@H]1COCC[C@@H]1OCC1CC1` is lower in Z score: 1.49 for the first, 0.63 for the second.

First: Cc1cccc(OCc2nc(CN(CCN3CCOCC3)C(=O)NC(C)(C)C)cs2)c1
Second: CN(CCCCN1CCOCC1)C(=O)c1cn[nH]c1
The Z score of the first is lower: -0.26 for the first, 0.99 for the second.

Going from `NC(=O)c1nccnc1C(=O)NC1CC1c1cccc(Cl)c1` (stereo unspecified) to `C[C@](NC(=O)CCc1ccsc1)(C(N)=O)c1cccc(Cl)c1`, the Z score rises from 0.06 to 1.21.

Compared with `CCc1onc(C)c1[C@@H]1CCCN1Cc1sccc1C`, `Cc1nn(CCCNC2CCCCC2)c(C)c1C` is higher in Z score: 0.5 for the first, 1.87 for the second.

Compared with `c1cc(CNCCc2nc(C3CC3)cs2)c2[nH]ncc2c1`, `O=C(NCc1ccccn1)c1nc[nH]n1` is lower in Z score: 0.87 for the first, -0.08 for the second.

Compared with `Cc1cc(C)c(S(=O)(=O)Nc2ccc3c(c2)CCCN3S(=O)(=O)c2cccs2)c(C)c1`, `CCCn1cc(NS(=O)(=O)c2cccc3nn(C)nc23)ccc1=O` is lower in Z score: 2.07 for the first, 1.18 for the second.

Compared with `Cc1cc2n(n1)CCC(=O)N2Cc1ccc(C(=O)NCCCN2CCCCC2)cc1`, `CCN(CCNC(=O)c1ccc(-n2c(-c3ccccc3)cc3c2CCCC3)cc1)c1ccccc1` is higher in Z score: -0.26 for the first, 3.24 for the second.

Going from `O=C(C1CCOCC1)N1CCc2sccc2C1` to `CC(C(=O)NCc1cccs1)N1CCCCC1Cn1cncn1` (stereo unspecified), the Z score rises from 0.49 to 1.13.

Compared with `Cc1ccc(-n2cc(NCc3cnc([C@H](C)O)s3)cn2)c(C)c1`, `Cc1cc(Cc2cnc(NC(=O)Cc3c(C)noc3C)s2)ccc1Br` is higher in Z score: 1.36 for the first, 1.89 for the second.

Compared with `Cc1ccc2c(C(=O)N3CCCCC3)cc(-c3cncnc3)nc2c1C`, `Cc1ccc(-c2cc(C(=O)NC[C@H]3CCCO3)c3ccccc3n2)s1` is lower in Z score: -0.37 for the first, -1.89 for the second.

First: CN(Cc1ccc(Cl)s1)C(=O)Cn1cnc(C#N)c1C#N
Second: CCc1noc(CN(CC)C(=O)Nc2c(C)c(CC)nn2-c2ccccc2)n1
The Z score of the first is lower: 0.5 for the first, 1.6 for the second.

First: O=C(c1ccccc1)[C@@H](C(=O)N1CCC(Cc2ccccc2)CC1)n1ccccc1=O
Second: O=C(c1ccccc1)N(CCc1nc(-c2ccccc2)no1)Cc1ccco1
The Z score of the first is lower: 1.34 for the first, 1.57 for the second.

Compared with `CCc1ccc(CN2CCN(CC3CC3)[C@@H]3CS(=O)(=O)C[C@@H]32)cc1`, `CN1CCC(N(C)C(=O)C2CC(=O)N(Cc3cc(C(F)(F)F)cc(C(F)(F)F)c3)C2)C1` (stereo unspecified) is lower in Z score: 1.94 for the first, 1.08 for the second.

First: CCOc1cccc([C@@H]2CC(c3ccc(C)cc3)=NC3(CCN(C(C)=O)CC3)N2)c1O
Second: COc1ccc(C)cc1NC(=O)CCc1nc2c(C)nn(-c3ccccc3)c2n(C)c1=O
The Z score of the first is higher: 5.75 for the first, 2.59 for the second.

Compared with `COC[C@H](CC(C)C)OC(=O)c1cccc(-n2cccn2)n1`, `COc1cc(C(=O)N2CCc3[nH]c(-c4ccc(F)cc4F)nc3C2)ccn1` is higher in Z score: -0.31 for the first, 0.13 for the second.

First: COc1ccccc1N1CCN([C@H]2[C@@H]3OC[C@@H](O3)[C@@H](NCc3ccco3)[C@@H]2O)CC1
Second: CC1CN(Cc2ccccc2)CC(C)C1NC(=O)c1ccncc1F (stereo unspecified)
The Z score of the first is higher: 1.46 for the first, -5.28 for the second.

Going from `Cn1cccc1C(=O)N1CCC[C@H](n2cc(-c3nc(-c4ccccc4)no3)nn2)C1` to `CCOC(=O)C1CCC(Nc2cccc(-c3nnco3)c2)CC1C` (stereo unspecified), the Z score rises from 1.2 to 1.26.

Going from `O=C1C2CC2C(=O)N1c1ccc2snnc2c1` (stereo unspecified) to `Cc1cnn(C(C)C)c1Nc1nc2c(s1)c(C)nn2C`, the Z score falls from 0.98 to 0.89.

Work on `CNc1cc(C)nc(N2C[C@H](C)[C@@](O)(C3CC3)C2)n1` yielded a Z score of -1.4.
